# Measurements taken from PubChem BioAssay (NCATS).
# “And” between values parts separate entries of the source, which are not always exact repeats. Equal values may be shown once. This list was built around the results that the source calls inconclusive (neither active nor inactive); the mix of calls is not that of the screen. Potencies of inconclusive entries are doubtful fits and often do not repeat. Some compounds were tested as several samples or in several runs, with calls that do not always agree. The source made the active and inactive calls. Calls come from the whole dose curve; as a rule, active = well fitted inhibition curve with a large enough effect; inconclusive = small, poorly fitted or top-dose-only effect; inactive = no such curve, though single readings can be large or run the other way.
# Experiment: Primary qHTS for inhibitors of nuclear receptor binding SET domain protein 2 (NSD2) in an RCH-ACV wild type WT cells (2C) (AID 1645877); note: nearly all actives have a fitted effect of over 70% in size
# Details: RCH-ACV (leukaemia line) NSD2 WT (2C) viability, CellTiter-Glo, 72 h; activity change, negative = cell killing: at 44.9 µM (top of the series); series mostly up to 44.9 µM
# Source text: Assay Provider: Jonathan D. Licht, MD
# University of Florida College of Medicine, Gainesville, FL
# Mutations in epigenetic regulators are common in relapsed pediatric acute lymphoblastic leukemia (ALL). Here, we uncovered the mechanism underlying the relapse of ALL driven by an activating mutation of the NSD2 histone methyltransferase (p.E1099K). […] Correction of this mutation restored glucocorticoid sensitivity. The transcriptional response to glucocorticoids was blocked in NSD2 mutant cells due to depressed glucocorticoid receptor (GR) levels and the failure of glucocorticoids to autoactivate GR expression. […] Pre-treatment of NSD2 p.E1099K cell lines and PDX samples with PRC2 inhibitors reversed glucocorticoid resistance in vitro and in vivo.
# High-throughput drug screening of isogenic RCH-ACV cell lines was performed at the National Center for Advancing Translational Science (NCATS), National Institutes of Health as previously described (1). Briefly, isogenic RCH-ACV NSD2 p.E1099K mutant (9B) and WT cells (2C) were plated at 500 cells/well in a 1536-well plate with a 72-hour incubation with compounds prior to addition of CellTiter-Glo to assess cell viability. NCATS libraries screened include: NPC, MIPE 5.0, Kinase and NPACT. To determine compound activity in the qHTS assay, the concentration-response data for each sample was plotted and modeled by a four-parameter logistic fit yielding IC50 and efficacy (maximal response) values. The area under the curve (AUC) of the dose-response curve ensures both efficacy (magnitude of cell killing) and potency (concentration that elicits cell killing) are accounted for in the analysis of activity.
# 1. Tobie D Lee, Olivia W Lee, Kyle R Brimacombe, Lu Chen, Rajarshi Guha, Sabrina Lusvarghi, Bethilehem G Tebase, Carleen Klumpp-Thomas, Robert W Robey, Suresh V Ambudkar, Min Shen, Michael M Gottesman, Matthew D Hall. A High-Throughput Screen of a Library of Therapeutics Identifies Cytotoxic Substrates of P-glycoprotein. Mol Pharmacol. 2019, Nov;96(5):629-640.
# % is set by controls: 0 for no effect and ±100 for the full control effect; tags give direction and shape of the fitted curve.
Structure (SMILES),Potency,"activity change, negative = cell killing"
C[C@@H](NC(=O)c1ncnc(N)c1Cl)c1ncc(C(=O)Nc2cc(C(F)(F)F)c(Cl)cn2)s1,"inconclusive: 11.8 µM [inhibitor, partial curve]",–
CCCCCN(CCC12CC3CC(CC(C3)C1)C2)C(=O)NCCCc1ccncc1,active: 16.3 µM,–
C[C@H]1COC2=C1C(=O)C(=O)c1c2ccc2c1CCCC2(C)C,"inconclusive: 37.2 µM [inhibitor, single point]",–
NCc1c[nH]c(=S)n1[C@H]1CCc2c(F)cc(F)cc2C1,–,inactive: -14.7%
CC(C)NC[C@@H](C(=O)N1CCN(c2ncnc3c2[C@H](C)C[C@H]3O)CC1)c1ccc(Cl)cc1,active: 2.63 µM,–
CC(C)(Oc1ccc(C2CC2(Cl)Cl)cc1)C(=O)O (stereo not given),"inactive and inconclusive: 11.8 µM [inhibitor, partial curve, poor fit]",–
Oc1ccc(C2CNCCc3c2cc(O)c(O)c3Cl)cc1 (stereo not given),"inconclusive: 29.9 µM [inhibitor, single point]",–
CCC(c1ccc(O)cc1)C(CC)c1ccc(O)cc1 (stereo not given),"inconclusive: 33.2 µM [inhibitor, single point]",–
Cc1ccc(Nc2nccc(N(C)c3ccc4c(C)n(C)nc4c3)n2)cc1S(N)(=O)=O,"inconclusive: 2.3 µM [inhibitor, full curve]",–
Cn1cc(-c2ccncc2)c(-c2ccc(OCc3ccc4ccccc4n3)cc2)n1,active: 14.5 µM,–
COC1CCC(C(=O)c2ccc3nc4c(cc3c2)CCCO4)CC1 (stereo not given),"inconclusive: 33.2 µM [inhibitor, single point]",–
O=C1CSC(=O)N1C(CCc1ccncc1)COc1ccc(-c2cccc([N+](=O)[O-])c2)cc1 (stereo not given),active: 11.8 µM,–
O=C(NOC[C@H](O)CO)c1ccc(F)c(F)c1Nc1ccc(I)cc1F,–,inactive: -29.6%
COC(=O)N[C@H](C(=O)N[C@@H](Cc1ccccc1)[C@@H](O)CN(Cc1ccc(-c2ccccn2)cc1)NC(=O)[C@@H](NC(=O)OC)C(C)(C)C)C(C)(C)C,"inconclusive: 29.9 µM [inhibitor, single point]",–
N#CC[C@H](C1CCCC1)n1cc(-c2ncnc3[nH]ccc23)cn1,active: 18.3 µM and active: 9.34 µM,–
CC(C)c1ccccc1Cc1cc(C(=O)Nc2ccc(S(=O)(=O)c3ccccc3C(C)(C)C)cc2)c(O)c(O)c1O,"inconclusive: 11.8 µM [inhibitor, full curve, poor fit]",–
Cc1cn([C@H]2C[C@H](N=[N+]=[N-])[C@@H](CO)O2)c(=O)[nH]c1=O,"inconclusive: 26.6 µM [inhibitor, single point]",–
CN(C)CCN(Cc1ccc(Cl)cc1)c1ccccn1,"inconclusive: 33.5 µM [inhibitor, single point]",–
CC[C@H](C)C(=O)O[C@H]1C[C@@H](C)C=C2C=C[C@H](C)[C@H](CC[C@@H]3C[C@@H](O)CC(=O)O3)[C@H]21,"inconclusive: 10.6 µM [inhibitor, partial curve] and inconclusive: 4.47 µM [inhibitor, partial curve, poor fit]",–
CCOC(=O)c1ccc(C#Cc2ccc3c(c2)C(C)(C)CCS3)nc1,"inconclusive: 33.5 µM [inhibitor, single point] and inactive",–

Structure (SMILES),Potency,"activity change, negative = cell killing"
O=C(Nc1cccc2c(=O)cc(-c3nn[nH]n3)oc12)c1ccc(OCCCCc2ccccc2)cc1,–,inactive: 7.09%
CC(=O)N1CCN(c2ccc(OC[C@H]3CO[C@](Cn4ccnc4)(c4ccc(Cl)cc4Cl)O3)cc2)CC1,"inconclusive: 8.33 µM [inhibitor, full curve, poor fit]",–
Cc1[nH]nc2ccc(-c3cncc(OC[C@@H](N)Cc4ccccc4)c3)cc12,active: 326 nM and active: 186 nM,–
CC(C)(Sc1ccc(CCN(CCCCC2CCCCC2)C(=O)NC2CCCCC2)cc1)C(=O)O,"inconclusive: 18.3 µM [inhibitor, single point] and inactive",–
O=C(O)[C@H](Cc1c[nH]c2ccccc12)N1C(=O)c2ccccc2C1=O,–,inconclusive: -30.2% [inhibitor]
COc1nc(C)nc(Cl)c1NC1=NCCN1,–,inactive: 5.91%
CN(C(=O)c1ccc(F)cc1C(F)(F)F)C1CCN(c2nnc(-c3ccnn3C)c3ccccc23)CC1,"inconclusive: 11.5 µM [inhibitor, partial curve] and inconclusive: 37.2 µM [inhibitor, partial curve, poor fit]",–
Cn1cc(-c2ccc3ncc(Cc4ccc5ncccc5c4)n3n2)cn1,"inconclusive: 16.6 µM [inhibitor, partial curve]",–
Cc1cc(-c2ncc(CC(=O)Nc3ccc(-c4cnccn4)cn3)cc2C)ccn1,"inconclusive: 2.63 µM [inhibitor, full curve]",–
Cc1nnc(C(=O)NC(C)(C)c2nc(C(=O)NCc3ccc(F)cc3)c(O)c(=O)n2C)o1,"inconclusive: 29.9 µM [inhibitor, single point]",–
Cn1c(CNc2ccc(C(=N)N)cc2)nc2cc(C(=O)N(CCC(=O)O)c3ccccn3)ccc21,inactive,–
Nc1ccc(S(N)(=O)=O)cc1,"inconclusive: 26.6 µM [inhibitor, single point]",–
CCc1cccc2c3c([nH]c12)C(CC)(CC(=O)O)OCC3 (stereo not given),–,inactive: -0.193%
O=C(O)c1ccc(O)c2ncc(N3CCOCC3)cc12,"inconclusive: 33.2 µM [inhibitor, single point]",–
CC(=O)Nc1cccc(-n2c(=O)n(C3CC3)c(=O)c3c(Nc4ccc(I)cc4F)n(C)c(=O)c(C)c32)c1,"inconclusive: 8.2 µM [inhibitor, partial curve, poor fit] and inconclusive: 11.8 µM [inhibitor, partial curve, poor fit]",–
CCCCn1c(=O)n(Cc2ccccc2F)c(=O)c2[nH]c(Cc3ccc(NC(C)=O)cc3)nc21,"inconclusive: 32.5 µM [inhibitor, partial curve, poor fit]",–
CC(c1cc2ccccc2s1)N(O)C(N)=O (stereo not given),"inconclusive: 29.9 µM [inhibitor, single point] and inactive",–
CCn1c(-c2nonc2N)nc2c(C#CC(C)(C)O)ncc(OC[C@H]3CCCNC3)c21,active: 1.18 µM,–
N#CC1(c2cccc(C(=O)Nc3cc(Oc4ccc5nc(NC(=O)C6CC6)sc5n4)ccc3F)c2Cl)CC1,active: 3.65 µM and inactive,–
CCOC(=O)C1=C(C)NC(=S)NC1c1cccc(O)c1 (stereo not given),"inconclusive: 16.6 µM [inhibitor, partial curve]",–
